Measured values published in the supplement of paper PMC9446081.
Screen size: about 39,000 compounds; about 220 (0.56%) showed activity. Some of the results follow.

tested on: Escherichia coli K-12 BW25113; assay: relative growth (OD600 normalised to plate interquartile mean) (fraction); higher = less growth inhibition, active = 0.2 or less; conditions: 50 µM; LB; incubation time: overnight (16-24 h)
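Further: static incubation at 37 °C against the wild-type strain, values averaged over two biological replicates.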

| Compound | relative growth |
| --- | --- |
| COc1ccc(S(=O)(=O)Nc2ccc3c(c2)C(=O)N([C@H](C)CO)C[C@@H](C)[C@H](CN(C)S(=O)(=O)c2cn(C)cn2)OCCCC[C@@H](C)O3)cc1 | inactive: 1.02 |
| C[C@H]1CN([C@@H](C)CO)C(=O)c2cc(NS(=O)(=O)c3ccc(F)cc3)ccc2O[C@@H]1CN(C)CC1CC1 | inactive: 1.01 |
| C[C@@H]1CCCCO[C@H](CN(C)C(=O)C2CCCCC2)[C@@H](C)CN([C@H](C)CO)C(=O)c2cc(NC(=O)NC3CCCCC3)ccc2O1 | inactive: 1.01 |
| C[C@H](CO)N1C[C@H](C)[C@@H](CN(C)C(=O)c2cccc(F)c2)Oc2cc(-c3cccnc3)ccc2S1(=O)=O | inactive: 0.997 |
| O=S(=O)(NCC[C@@H]1CC[C@@H](NS(=O)(=O)c2cccc(Cl)c2)[C@H](CO)O1)c1cccc(F)c1 | inactive: 1 |
| C[C@@H]1CN([C@@H](C)CO)S(=O)(=O)c2ccc(C#CCN(C)C)cc2O[C@@H]1CN(C)C(=O)C1CCCCC1 | inactive: 0.994 |
| C[C@@H]1CN([C@@H](C)CO)C(=O)c2cc(NC(=O)CCN3CCOCC3)ccc2O[C@@H]1CN(C)C(=O)Nc1ccccc1 | inactive: 0.973 |
| O=c1[nH]c(=S)nc2n(CCO)[nH]cc1-2 | inactive: 1 |
| NC(=O)c1ncn([C@@H]2O[C@H](CO)[C@@H](O)[C@H]2O)c1N | inactive: 0.993 |
| O=C(O)c1ccccc1-c1c2cc(I)c(=O)c(I)c-2oc2c(I)c(O)c(I)cc12 | inactive: 0.961 |
| C[C@H]1CN([C@@H](C)CO)C(=O)c2cc(NC(=O)Nc3ccc(F)cc3)ccc2O[C@@H]1CN(C)Cc1ccc(-c2ccccc2)cc1 | inactive: 0.98 |
| C[C@@H]1CN([C@H](C)CO)C(=O)Cc2cc(NS(=O)(=O)c3ccccc3)ccc2O[C@@H]1CN(C)S(C)(=O)=O | inactive: 0.985 |
| COc1ccc(cc1)CN1C[C@]2(CCN(CC2)S(=O)(=O)c2cn(cn2)C)c2c([nH]c3cc(ccc23)OC)[C@@H]1CO | inactive: 1 |
| C[C@@H]1CN([C@H](C)CO)C(=O)c2cc(C#CCN(C)C)cnc2O[C@@H]1CN(C)C(=O)CCN1CCCCC1 | inactive: 1.01 |
| COc1ccc(S(=O)(=O)N(C)C[C@@H]2Oc3ccc(NS(=O)(=O)c4ccc(F)cc4)cc3C(=O)N([C@H](C)CO)C[C@@H]2C)cc1 | inactive: 1.04 |
| C[C@H]1CN([C@@H](C)CO)C(=O)c2cc(NC(=O)Nc3ccc(C(F)(F)F)cc3)ccc2O[C@@H]1CN(C)Cc1ccc(C(=O)O)cc1 | inactive: 0.949 |
| C[C@@H]1CN([C@H](C)CO)C(=O)c2cccc(NS(=O)(=O)c3cccs3)c2O[C@@H]1CN(C)S(=O)(=O)c1ccc(F)cc1 | inactive: 1.05 |
| C[C@@H]1CN([C@H](C)CO)C(=O)c2cc(NC(=O)C3CCCCC3)ccc2O[C@H]1CN(C)C(=O)Nc1cccc2ccccc12 | inactive: 1 |
| Cc1noc(C)c1S(=O)(=O)Nc1ccc2c(c1)C(=O)N([C@H](C)CO)C[C@@H](C)[C@@H](CN(C)S(=O)(=O)c1cn(C)cn1)O2 | inactive: 0.979 |
| C[C@H](O)C#Cc1ccc2c(c1)O[C@H](CN(C)C)[C@@H](C)CN([C@H](C)CO)S2(=O)=O | inactive: 1.03 |

| Compound | relative growth |
| --- | --- |
| COc1ccc(NC(=O)N(C)C[C@H]2OCCCC[C@H](C)Oc3ccc(NS(=O)(=O)c4ccccc4)cc3C(=O)N([C@@H](C)CO)C[C@@H]2C)cc1 | inactive: 0.999 |
| C[C@H]1CN([C@@H](C)CO)C(=O)c2cc(NC(=O)Cc3cn(C)c4ccccc34)ccc2O[C@H]1CN(C)C(=O)Nc1cccc2ccccc12 | inactive: 0.99 |
| C[C@@H]1CN([C@H](C)CO)C(=O)c2cccc(NC(=O)c3ccc(-c4nccs4)cc3)c2O[C@H]1CN(C)Cc1ccc(C(=O)O)cc1 | inactive: 0.991 |
| COc1ccc(S(=O)(=O)N(C)C[C@H]2Oc3ccc(NS(=O)(=O)c4c(C)noc4C)cc3CC(=O)N([C@H](C)CO)C[C@H]2C)cc1 | inactive: 1 |
| Cc1noc(C)c1NC(=O)N(C)C[C@@H]1OCCCC[C@H](C)Oc2ccc(NC(=O)c3ccccc3)cc2C(=O)N([C@H](C)CO)C[C@@H]1C | inactive: 0.98 |
| CC(=O)OC[C@H]1O[C@@H](n2ccc(=O)[nH]c2=O)[C@H](OC(C)=O)[C@@H]1OC(C)=O | inactive: 0.99 |
| COc1ccccc1C#Cc1ccc2c(c1)O[C@H](CN(C)C(C)=O)[C@H](C)CN([C@@H](C)CO)S2(=O)=O | inactive: 1.02 |
| CC(C)N1CC=C[C@@]23O[C@@H]4C=CCOC(=O)[C@@H]4[C@H]2C(=O)N(CCCO)[C@@H]3C1=O | inactive: 0.999 |
| C=CC[C@@H](CC(=O)N(CCO)Cc1ccccc1)C(=O)NCCOC(=O)[C@@H](CC=C)CC(=O)OC(C)(C)C | inactive: 0.982 |
| COc1cccc(C(=O)Nc2ccc3c(c2)C(=O)N(C)[C@@H]2CC[C@@H](CC(=O)NCC(F)(F)F)O[C@H]2CO3)c1 | inactive: 1.01 |
| CN(C)CCCNC(=O)C[C@H]1CC[C@@H](NS(=O)(=O)c2ccccc2)[C@@H](CO)O1 | inactive: 1.01 |
| C[n+]1c2cc(N)ccc2cc2ccc(N)cc21.[Cl-] | inactive: 0.659 |
| COc1ccc(CN(C)C[C@H]2Oc3ccc(NC(=O)CCN4CCOCC4)cc3C(=O)N([C@@H](C)CO)C[C@H]2C)cc1 | inactive: 0.988 |
| C[C@H](CO)N1C[C@H](C)[C@@H](CN(C)S(=O)(=O)c2ccccc2)Oc2ccc(NS(=O)(=O)c3cccs3)cc2CC1=O | inactive: 1.01 |
| COc1ccccc1C#Cc1cnc2c(c1)C(=O)N([C@@H](C)CO)C[C@H](C)[C@H](CN(C)C(=O)c1ccc3c(c1)OCO3)O2 | inactive: 0.988 |
| CN1CCN(C(=O)C[C@H]2CC[C@@H]3[C@H](COC[C@@H](O)CN3S(=O)(=O)c3cccc(F)c3)O2)CC1 | inactive: 1.03 |
| O=C(C[C@H]1CC[C@H]2[C@@H](COC[C@H](O)CN2C(=O)Nc2ccc(F)cc2)O1)NCCCN1CCOCC1 | inactive: 0.96 |
| C#CC1(O)CCC2C3CCC4=Cc5oncc5CC4(C)C3CCC21C (centres undefined) | inactive: 1.11 |
| COc1ccc(NC(=O)N(C)C[C@@H]2Oc3c(NS(C)(=O)=O)cccc3C(=O)N([C@@H](C)CO)C[C@H]2C)cc1 | inactive: 0.998 |
| COc1ccc(S(=O)(=O)N(C)C[C@H]2Oc3ccc(NC(=O)Nc4c(C)noc4C)cc3CC(=O)N([C@@H](C)CO)C[C@H]2C)cc1 | inactive: 0.993 |

| Compound | relative growth |
| --- | --- |
| C[C@H]1CN([C@@H](C)CO)C(=O)Cc2cc(NC(=O)Nc3cccc4ccccc34)ccc2O[C@@H]1CN(C)Cc1ccc(C(=O)Nc2ccccc2N)cc1 | inactive: 1.02 |
| Cc1ccc(S(=O)(=O)Nc2ccc3c(c2)C(=O)N([C@@H](C)CO)C[C@H](C)[C@@H](CN(C)Cc2ccc(C(F)(F)F)cc2)O3)cc1 | inactive: 0.988 |
| C[C@@H]1CN([C@H](C)CO)C(=O)Cc2cc(NC(=O)CCN3CCOCC3)ccc2O[C@@H]1CN(C)S(=O)(=O)c1ccc(Cl)cc1 | inactive: 1.01 |
| C[C@H](CO)N1C[C@H](C)[C@@H](CN(C)Cc2ccncc2)OCCCC[C@H](C)Oc2ccc(NC(=O)Cc3ccccc3)cc2C1=O | inactive: 0.995 |
| C[C@H](CO)N1C[C@H](C)[C@H](CN(C)C(=O)Nc2ccccc2)OCCCC[C@H](C)Oc2ccc(NC(=O)CCC(F)(F)F)cc2C1=O | inactive: 1.04 |
| COc1cc2c(cc1OC)CN(C(=O)[C@@H]1[C@H]3C(=O)O[C@H](c4ccccc4)[C@H](c4ccccc4)N3[C@H](c3ccc(OCCO)cc3)[C@@]13C(=O)Nc1ccc(C#CCCO)cc13)CC2 | inactive: 1.08 |
| COc1ccc(S(=O)(=O)N(C)C[C@H]2OCCCC[C@H](C)Oc3ccc(NC(=O)c4ccccc4)cc3C(=O)N([C@H](C)CO)C[C@@H]2C)cc1 | inactive: 1.01 |
| CN(C)CC(c1ccc(O)cc1)C1(O)CCCCC1.O=C(O)CCC(=O)O (centres undefined) | inactive: 1.14 |
| CC(=O)N[C@@H](CC(=O)O)C(=O)N[C@@H](CCC(=O)O)C(=O)O | inactive: 0.997 |
| C[C@@H]1CN([C@H](C)CO)C(=O)c2cc(NC(=O)NC3CCCCC3)ccc2O[C@@H](C)CCCCO[C@@H]1CN(C)S(=O)(=O)c1ccc(Cl)cc1 | inactive: 1.01 |
| O=C(CCCCCC(=O)N/N=C/[C@H](O)[C@@H](O)[C@@H](O)[C@H](O)CO)NO | inactive: 1.04 |
| C[C@@H]1CN([C@@H](C)CO)C(=O)c2cccc(NC(=O)C3CCCCC3)c2O[C@@H]1CN(C)S(=O)(=O)c1cn(C)cn1 | inactive: 1.03 |
| C[C@@H]1CN([C@@H](C)CO)C(=O)c2cc(NS(C)(=O)=O)ccc2O[C@H]1CN(C)C(=O)Nc1ccc(F)cc1 | inactive: 1 |
| COc1ccc(NC(=O)Nc2ccc3c(c2)CC(=O)N([C@H](C)CO)C[C@@H](C)[C@@H](CN(C)S(C)(=O)=O)O3)cc1 | inactive: 0.992 |
| O=C1CN(S(=O)(=O)Cc2ccccc2)C[C@@H]2[C@H](c3ccc(C#Cc4cccc(F)c4)cc3)[C@@H](CO)N12 | inactive: 0.987 |
| C[C@@H]1CN([C@@H](C)CO)C(=O)c2c(c3ccccc3n2C)-c2ccccc2CO[C@@H]1CN(C)Cc1cccc(C(F)(F)F)c1 | inactive: 1 |
| Cc1cc(NC(=O)C2=C(O)c3ccccc3S(=O)(=O)N2C)no1 | inactive: 1.04 |
| Cc1noc(C)c1NC(=O)Nc1cccc2c1O[C@@H](CN(C)S(C)(=O)=O)[C@@H](C)CN([C@H](C)CO)C2=O | inactive: 1 |
| CO[C@@H]1CN(C)C(=O)c2cc(NC(=O)Nc3ccccc3F)ccc2OC[C@@H](C)N(Cc2ccccc2C(=O)O)C[C@@H]1C | inactive: 0.992 |
